For one assay, the system named is HSkMC. The experiment in a line: cytotoxicity call (relative viability < 0.9). Conditions: 10 µM.
Another assay has as its system HepG2. Nature of the assay: cytotoxicity call (relative viability < 0.9). To be noted: 10 µM.
The next assay has as its system S. aureus RN4220. Nature of the assay: growth inhibition call (relative growth <= 0.2). Conditions: 50 µM.

Experimental findings from the antibiotic and cytotoxicity screens of Wong et al. (2023) are described below.

The other results are listed elsewhere or left out.

In the case of `C[C@@H]1CCCCO[C@@H](CN(C)Cc2ccc(C(=O)O)cc2)[C@H](C)CN([C@@H](C)CO)C(=O)c2cc(NC(=O)C3CCCCC3)ccc2O1`, the cytotoxicity call in the assay on HSkMC and with HepG2 was “inactive” in each case. For the same compound, the growth inhibition call in the assay with S. aureus RN4220 was “inactive”.
Take `C[C@@H]1CCCCO[C@@H](CN(C)C(=O)C2CCCCC2)[C@H](C)CN([C@H](C)CO)C(=O)c2cc(NC(=O)Nc3ccc(F)cc3)ccc2O1`: the cytotoxicity call with HSkMC and in the assay on HepG2 was “inactive” each time. Besides, the growth inhibition call with S. aureus RN4220 was “inactive”.
On to `C=c1cc(C)ccc1=C1NN=C(NC(C)=O)O1`, for which the cytotoxicity call with HSkMC and with HepG2 was “inactive” each time. The growth inhibition call in the assay on S. aureus RN4220 is “inactive”.
On to `Cc1cc(C(=O)Nc2cccc3c2O[C@H](CN(C)Cc2ccc4c(c2)OCO4)[C@H](C)CN([C@H](C)CO)C3=O)n(C)n1`, for which the cytotoxicity call with HSkMC and in the assay on HepG2 was “inactive” each time. Also, the growth inhibition call with S. aureus RN4220 is “inactive”.
Regarding `NC(=S)NCCC[C@H](N)C(=O)O`, the cytotoxicity call in the assay on HSkMC and with HepG2 was “inactive” in each case. For the same compound, the growth inhibition call with S. aureus RN4220 is “inactive”.
For `C[C@H](CO)N1C[C@H](C)[C@@H](CN(C)S(=O)(=O)c2cccs2)OCCCC[C@H](C)Oc2ccc(NC(=O)C3CCCCC3)cc2C1=O`, the cytotoxicity call in the assay on HSkMC and in the assay on HepG2 was “inactive” throughout. Further, the growth inhibition call in the assay with S. aureus RN4220 is “inactive”.
Turning to `Cc1noc(C)c1S(=O)(=O)Nc1ccc2c(c1)C(=O)N([C@@H](C)CO)C[C@@H](C)[C@@H](CN(C)CC1CCCCC1)OCCCC[C@H](C)O2`, the cytotoxicity call in the assay on HSkMC and with HepG2 was “inactive” each time. The growth inhibition call with S. aureus RN4220 is “inactive”.
As to `C[C@H](CO)N1C[C@H](C)[C@@H](CN(C)Cc2ccccc2)Oc2c(NC(=O)Nc3ccc(C(F)(F)F)cc3)cccc2C1=O`, the cytotoxicity call in the assay with HSkMC and in the assay on HepG2 was “inactive” in each case. For the same compound, the growth inhibition call in the assay with S. aureus RN4220 is “inactive”.
On to `CC(C)NCC(O)COc1ccc(COCCOC(C)C)cc1.O=C(O)C=CC(=O)O` (stereo unspecified), for which the cytotoxicity call in the assay on HSkMC and with HepG2 was “inactive” throughout. The growth inhibition call in the assay on S. aureus RN4220 was “inactive”.
For the compound `Cc1noc(C)c1S(=O)(=O)Nc1ccc2c(c1)C(=O)N([C@H](C)CO)C[C@@H](C)[C@@H](CN(C)S(C)(=O)=O)O2`, the cytotoxicity call in the assay with HSkMC and with HepG2 was “inactive” in each case. Besides, the growth inhibition call in the assay with S. aureus RN4220 is “inactive”.
Regarding `CC(=O)NCCCC[C@@H]1NC(=O)[C@@H]2C[C@H](C(=O)NCCCCCCNC(=O)CS)[C@H](c3ccc(O)cc3)N2C1=O`, the cytotoxicity call with HSkMC and with HepG2 was “inactive” throughout. Further, the growth inhibition call in the assay with S. aureus RN4220 is “inactive”.
On to `CC(C)NC(=O)N(C)C[C@H]1Oc2ccc(NS(=O)(=O)c3ccccc3)cc2CC(=O)N([C@H](C)CO)C[C@H]1C`, for which the cytotoxicity call with HSkMC and in the assay with HepG2 was “inactive” throughout. Besides, the growth inhibition call in the assay with S. aureus RN4220 was “inactive”.
`CCC(=O)Nc1ccc2c(c1)C(=O)N(C)C[C@H](OC)[C@H](C)CN(C(=O)CN1CCOCC1)[C@H](C)CO2`: the cytotoxicity call in the assay on HSkMC and in the assay with HepG2 was “inactive” in each case. In addition, in the assay with S. aureus RN4220, the growth inhibition call was “inactive”.
Take `Cc1noc(C)c1S(=O)(=O)Nc1ccc2c(c1)C(=O)N([C@H](C)CO)C[C@H](C)[C@H](CN(C)Cc1ccc(C(F)(F)F)cc1)OCCCC[C@@H](C)O2`: the cytotoxicity call in the assay with HSkMC and in the assay on HepG2 was “inactive” throughout. In addition, in the assay on S. aureus RN4220, the growth inhibition call was “inactive”.
`CC(C)NC(=O)Nc1ccc2c(c1)C(=O)N([C@@H](C)CO)C[C@@H](C)[C@H](CN(C)C(=O)NC1CCCCC1)O2`: the cytotoxicity call with HSkMC and with HepG2 was “inactive” each time. Moreover, in the assay on S. aureus RN4220, the growth inhibition call is “inactive”.
As to `C[C@@H]1CN([C@@H](C)CO)C(=O)c2cc(NS(=O)(=O)c3ccccc3)ccc2O[C@@H]1CN(C)S(=O)(=O)c1ccc(F)cc1`, the cytotoxicity call in the assay with HSkMC and in the assay on HepG2 was “inactive” throughout. For the same compound, in the assay on S. aureus RN4220, the growth inhibition call was “inactive”.
As to `C=CC(C1=CC(=O)C(OC)=CC1=O)c1ccc(O)cc1` (stereo unspecified), the cytotoxicity call with HSkMC is “inactive”. Moreover, the cytotoxicity call in the assay on HepG2 is “active”. In addition, the growth inhibition call in the assay on S. aureus RN4220 is “inactive”.
On to `COc1ccc(COCC23Oc4ccccc4[C@H]([C@H]2COC(=O)c2ccccc2)n2c(c4ccccc4c(-c4ccccc4)c2=O)N3C)cc1`, for which the cytotoxicity call in the assay on HSkMC was “inactive”. In addition, the cytotoxicity call with HepG2 is “active”. Further, the growth inhibition call in the assay with S. aureus RN4220 is “inactive”.
Consider `C[C@H](CO)N1C[C@H](C)[C@H](CN(C)C(=O)Nc2ccc(Cl)cc2)OCCCC[C@H](C)Oc2ccc(NC(=O)C3CCCCC3)cc2C1=O`, for which the cytotoxicity call in the assay on HSkMC and in the assay on HepG2 was “inactive” throughout. Further, in the assay with S. aureus RN4220, the growth inhibition call is “inactive”.
For the compound `C[C@H](CO)N1C[C@H](C)[C@@H](CN(C)C(=O)NC2CCCCC2)Oc2ccc(NS(=O)(=O)c3cn(C)cn3)cc2C1=O`, the cytotoxicity call in the assay on HSkMC and in the assay on HepG2 was “inactive” throughout. Also, in the assay with S. aureus RN4220, the growth inhibition call was “inactive”.
Turning to `COc1ccc(C#Cc2ccc3c(c2)O[C@H](CN(C)C(C)=O)[C@H](C)CN([C@@H](C)CO)S3(=O)=O)cc1`, the cytotoxicity call in the assay with HSkMC and in the assay with HepG2 was “inactive” each time. In the assay with S. aureus RN4220, the growth inhibition call was “inactive”.
As to `COc1cc(OC)c2c(=O)c(OC)c(-c3ccccc3)oc2c1`, the cytotoxicity call with HSkMC and in the assay on HepG2 was “inactive” in each case. In the assay on S. aureus RN4220, the growth inhibition call is “inactive”.
Regarding `CO[C@H]1CN(C)C(=O)c2ccc(NS(=O)(=O)CC(F)(F)F)cc2OC[C@H](C)N(C(=O)NC(C)C)C[C@H]1C`, the cytotoxicity call in the assay with HSkMC and in the assay on HepG2 was “inactive” in each case. For the same compound, in the assay on S. aureus RN4220, the growth inhibition call was “inactive”.
As to `C[C@@H]1CCCCO[C@H](CN(C)S(=O)(=O)c2ccccc2)[C@H](C)CN([C@@H](C)CO)C(=O)c2cc(NS(=O)(=O)c3cn(C)cn3)ccc2O1`, the cytotoxicity call in the assay on HSkMC (human skeletal muscle cells) and in the assay with HepG2 was “inactive” in each case. For the same compound, the growth inhibition call in the assay on S. aureus RN4220 was “inactive”.
Take `COc1ccc(NC(=O)Cn2c(=O)c3c(OC)ccnc3n(C)c2=O)c(OC)c1`: the cytotoxicity call in the assay with HSkMC and in the assay on HepG2 was “inactive” each time. Also, in the assay with S. aureus RN4220, the growth inhibition call is “inactive”.
With `C[C@@H]1CCCCO[C@@H](CN(C)Cc2ccccc2)[C@@H](C)CN([C@@H](C)CO)C(=O)c2cc(NS(=O)(=O)c3ccc(F)cc3)ccc2O1`, the cytotoxicity call with HSkMC and in the assay on HepG2 was “inactive” in each case. In addition, the growth inhibition call with S. aureus RN4220 was “inactive”.
With `C/C1=C/[C@@]23O[C@@]2(C[C@H](C)[C@H]3O[C@H]2O[C@@H](CO)[C@@H](O)[C@@H](O)[C@@H]2O)C(=O)[C@H](C)[C@H](O)[C@@H]2C([C@H](O)[C@@H]1O)C2(C)C` (stereo partly specified), the cytotoxicity call with HSkMC and in the assay on HepG2 was “inactive” in each case. In the assay on S. aureus RN4220, the growth inhibition call was “inactive”.
